# Measurements from PubChem BioAssay AID1347120 (National Center for Advancing Translational Sciences (NCATS), 2019).
# Screen size: about 390,000 compounds; about 930 (0.24%) were called active. This list was built around the results that the source calls inconclusive (neither active nor inactive); the mix of calls is not that of the screen. Calls come from the whole dose curve; as a rule, active = well fitted activation curve with a large enough effect; inconclusive = small, poorly fitted or top-dose-only effect; inactive = no such curve, though single readings can be large or run the other way. Potencies beside an inconclusive call are fits to weak or partial responses and may not hold up.
# Assay: qHTS for Suppressors of FUS Proteinopathy: Primary screen using FUS-linked yeast assay; note: nearly all actives have a fitted effect of over 55% in size;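 for growth rescue (activation): plate controls were DMSO vehicle for no effect and reference control for full effect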
# Conditions: S. cerevisiae FUS-expressing, OD600, 24 h; Potency: growth rescue; growth rescue (activation): at 76.6 µM (top of the series)
# Outline: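 Read-out: OD at 600 nm after 24hr at 30C, reporting rescue of FUS-induced yeast toxicity. Cells at OD 0.005 in galactose (2%) minimal medium; compounds tested in a dilution series; CP55940 titration from 92uM final as control.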
# Potency is the fitted concentration of half-maximal effect; tags give direction and shape of the fitted curve.
SMILES,Potency,growth rescue (activation)
Cc1cccc(N2CCN(C(=O)Cn3c(C)c4cnn(-c5ccccc5)c(=O)c4c3C)CC2)c1C,"inconclusive: 20 µM [activator, partial curve]",–
Cc1ccc(N2C(=O)[C@@H]3[C@H](C2=O)C2c4ccccc4C=CN2[C@@H]3C(=O)c2ccco2)c(C)c1 (stereo partly drawn),"inconclusive: 35.5 µM [activator, single point]",–
Cc1ccc(S(=O)(=O)N2C[C@H]3C(=O)C[C@@H](c4ccc(Cl)cc4)N(S(=O)(=O)c4ccc(C)cc4)[C@H]3C[C@H]2c2ccc(Cl)cc2)cc1,"inconclusive: 7.08 µM [activator, partial curve]",–
O=CNc1cc(-c2cccc(F)c2)cn2c(-c3ccc(F)cc3)cnc12,–,inactive: 11.2%
CC(NS(=O)(=O)c1ccc(Cl)cc1)C(=O)OCC(=O)c1ccc[nH]1 (stereo not drawn),–,inactive: 16.3%
O=C(OCC#CCSc1nnc(-c2cccc3ccccc23)o1)c1cccc(F)c1,–,inactive: 17.5%
O=C(c1ccc(Sc2cccc(Cl)c2)c([N+](=O)[O-])c1)N1CCN(c2ccccn2)CC1,–,inactive: 46.2%
CCCCCCCCN1C(=O)[C@H](CC(=O)N2CCCCC2)C[C@@]2(C(=O)OC)CC(C)(C)CC=C12,"inconclusive: 17.8 µM [activator, single point]",–
COc1ccccc1CNC(=O)Cc1c(C)c2cc3c(C)coc3c(C)c2oc1=O,–,inactive: -7.89%
Cc1cccc(COCC(Cc2ccccc2)N2CCN(C(=O)c3cccc(Cl)c3)CCC2=O)c1 (stereo not drawn),"inconclusive: 25.1 µM [activator, single point]",–
Cc1cc(NS(=O)(=O)c2ccc(NC(=O)CSc3nnc(SCc4ccc(F)cc4)s3)cc2)nc(C)n1,"inconclusive: 25.1 µM [activator, partial curve]",–
CCOC(=O)c1cc2c(=O)n3ccccc3nc2n(CCCOC)c1=NC(=O)c1c(-c2c(F)cccc2Cl)noc1C,–,inactive: 21.9%
O=C(CN1C(=O)S/C(=C\c2ccccc2F)C1=O)NC1CCS(=O)(=O)C1 (stereo not drawn),"inconclusive: 5.62 µM [activator, full curve]",–
CC(C)c1nc(SCC(=O)Nc2cccc(C(=O)O)c2)c2c3c(sc2n1)CCCC3,"inconclusive: 35.5 µM [activator, single point]",–
CC1CCc2nc(NC(=O)C3COc4ccccc4O3)sc2C1 (stereo not drawn),–,inactive: -20.1%
COc1cccc(-c2sc3ccc(OC)cc3c2-c2ccc(OCCN3CCCCC3)cc2)c1,"inconclusive: 28.2 µM [activator, single point]",–
CC(C)(C)c1ccc(-c2nnc(SCc3ccccc3)n2Cc2ccco2)cc1,"inconclusive: 22.4 µM [activator, single point]",–
O=S(=O)(NCCc1csc(-c2cccc(F)c2)n1)c1cc(F)ccc1F,–,inactive: -18.4%
COc1ccc(CCNC(=O)c2cc(Nc3ccccc3)nc3ccccc23)cc1OC,"inconclusive: 22.4 µM [activator, partial curve, poor fit]",–
Cc1cc(C)n(-c2ccn(Cc3ccc(Cl)cc3Cl)c(=O)n2)n1,"inconclusive: 50.1 µM [activator, single point]",–
COc1ccc(N(C(=O)Cn2nnc(-c3ccc(F)cc3)n2)C(C)C(=O)NC2CCCC2)cc1 (stereo not drawn),"inconclusive: 31.6 µM [activator, partial curve, poor fit]",–
Cc1ccc(OCC(=O)N/N=C/c2cccn2C)cc1C,"inconclusive: 11.2 µM [activator, partial curve, poor fit]",–

SMILES,Potency,growth rescue (activation)
COc1cccc2c(NCc3ccccc3)nc(-n3c(N)nc4ccccc43)nc12,–,inactive: 19.8%
Oc1ccccc1-c1nc2cnccn2c1Nc1ccc(Cl)cc1,"inconclusive: 50.1 µM [activator, single point]",–
Cc1ccc(OCC(=O)NCC(=O)OCc2cc(=O)n3nc(CC(C)C)sc3n2)cc1,–,inactive: 11.3%
O=C(NCCc1ccc(Cl)cc1)c1cnc2sc(N3CCCC3)nn2c1=O,–,inactive: 8.91%
O=C(CCc1ccc(S(=O)(=O)N2CCOCC2)cc1)N1CCc2ccccc2C1,–,inactive: 3.96%
Clc1cccc(COn2c(-c3ccc(Cl)cc3Cl)nc3ncccc32)c1,"inconclusive: 31.6 µM [activator, single point]",–
Cc1cc(CN2CCN(CCC#N)CC2)c(O)c(C2(C)CCCCC2)c1,–,inconclusive: 53.1% [activator]
COc1ccc(S[C@]2(C(=O)N3CCOCC3)CC(=O)N(C(=O)c3ccccc3)[C@@H]2c2ccc(OC)cc2)cc1,"inconclusive: 20 µM [activator, partial curve, poor fit]",–
COc1ccc(/C=N\NC(=O)Cc2cccs2)c(OC)c1OC,–,inactive: 11.3%
COc1ccc(-c2ccnc3nc(Sc4ncc(C(F)(F)F)cc4Cl)nn23)cc1,"inconclusive: 50.1 µM [activator, partial curve, poor fit]",–
C=CCn1c(SCCN2CCOCC2)nc2c1c(=O)[nH]c(=O)n2C,–,inactive: -9.33%
O=C1/C(=C\c2ccc([N+](=O)[O-])cc2)CCc2ccccc21,–,inactive: -9.27%
CC(NC(=O)CN(C)Cc1cccc(Cl)c1)c1ccccc1 (stereo not drawn),–,inactive: -15.5%
COc1cccc(C(O)c2nc(-c3cncnc3)cs2)c1 (stereo not drawn),–,inactive: -29.7%
Cc1cc2c(cc(C(=O)NCCCN3CCOCC3)n2Cc2ccc(Cl)cc2)o1,"inconclusive: 10 µM [activator, full curve, poor fit]",–
O=C(COCc1ccccc1)NC1CCCCN(Cc2cccc(Cl)c2)C1=O (stereo not drawn),"inconclusive: 15.8 µM [activator, partial curve, poor fit]",–
O=C(CN1C(=O)NC2(CCCC2)C1=O)Nc1cc(C(F)(F)F)ccc1N1CCCCC1,"inconclusive: 50.1 µM [activator, single point]",–
COc1ccc(Cn2c(C3CC3)nc3ccc(NC(=O)c4ccco4)cc3c2=O)cc1,"inconclusive: 35.5 µM [activator, single point]",–
Cc1cc(C(=O)OCC(=O)N(C)c2c(N)n(Cc3ccccc3)c(=O)[nH]c2=O)c(C)n1-c1ccccc1,"inconclusive: 35.5 µM [activator, single point]",–
COc1ccc(N2CCN(C(=O)CSc3nc(-c4ccccc4)no3)CC2)cc1,–,inactive: 8.98%
COc1ccc(/C=C(\NC(=O)c2ccc(OC)c(OC)c2)C(=O)NCCc2c[nH]c3ccccc23)cc1,"inconclusive: 35.5 µM [activator, partial curve, poor fit]",–
